# The whole screen tested about 150,000 compounds, of which about 540 (0.36%) showed an effect of 50% or more. The list shows a part of the results.
# System: Plasmodium falciparum
# Assay: Primary screen in NF54 nanoGlo assay, in single point, at 2uM, 72h; a lower Z score goes with more inhibition
# Format: functional, Erythrocyte
# Conditions: timepoint 72 hour
SMILES,% Inhibition [%],Z score
CNC(=O)NC(=O)CCN1CCN(Cc2ccc3c(c2)CCO3)CC1,-7,1.25
Cc1cc(-c2cc(S(=O)(=O)Nc3ccccc3)c(C)o2)[nH]n1,-4,0.42
Cc1cccc(C(=O)Nc2ccc(N3CCN(Cc4ccc(F)cc4)C3=O)nc2)c1,-5,0.59
C[C@@H]1C[C@H](O)CN(C(=O)Cc2ccc3cn[nH]c3c2)C1,-18,2.81
CC(=O)NC1CCC(Nc2ccc(CC(=O)N3CCc4ccccc43)cc2)CC1 (stereo unspecified),-5,0.87
Cc1cccc([C@@H](C)C(=O)NCC2(CF)CCOCC2)c1,2,-0.2
Cc1ccc(CS(=O)(=O)N2CCC(C(=O)Nc3ccc(C)cc3)CC2)cc1,-13,2.36
CCN1C(=O)CC(Nc2ccc3c(c2)NC(=O)C(C)O3)C1=O (stereo unspecified),-2,0.37
O=C(CC1(CN2Cc3ccccc3C2=O)CCCCC1)N[C@H](CO)Cc1ccccc1,-18,2.22
CC(C)c1nnc2n1CCN(C(=O)c1ccc3c(c1)N(C)CCO3)[C@H]2C,-14,1.55
CCC[C@H]1CN(c2ncccc2F)C[C@@H]1NC(=O)C1CCOCC1,-7,1.18
COCCCNC(=O)Nc1c(C)cc(Br)cc1OC,-16,3.16
O=C1C[C@@H](C(=O)Nc2ccc(F)c(F)c2)c2c(n(CCc3ccccc3)c(=O)[nH]c2=O)N1,30,-3.41
CC1CCCC(OCC(=O)NCc2ccccc2O)C1 (stereo unspecified),-2,0.37
O=C(Cc1ccccc1)n1nc(NCc2cccc(Cl)c2)nc1NCc1cccc(Cl)c1,6,-0.8
Cc1nc(NCCNS(=O)(=O)c2cccs2)cc(-n2ccnc2C)n1,7,-0.96
CCOC(=O)c1nc([C@H](CC(C)C)NC(=O)COC)n[nH]1,-33,3.87
CC1=NO[C@](C)(C(=O)N2CCC(CNC(=O)c3nc4ccccn4c3F)CC2)C1,2,-0.19
CC(C)(C)C1CCC(CC(=O)NCc2n[nH]c(=O)[nH]2)CC1 (stereo unspecified),-15,1.69
COCCc1nc(-c2cnc(C3CC3)nc2)n(-c2ccc(F)cc2F)n1,-11,1.36
Cc1cc(C)c(NC(=O)Cn2nc3c(Oc4cccc(C)c4C)nc4ccccc4n3c2=O)c(C)c1,0,0.06

SMILES,% Inhibition [%],Z score
Cc1nn(C)c(C)c1NC(=O)CN1CCCCC1C(C)O (stereo unspecified),-6,0.78
CN=C(NCc1ccccc1)N1CCCC1,-7,1.01
Cc1cc(NC(=O)N2CC(O)CC2c2ccccc2)nn1C1CCCCC1 (stereo unspecified),-4,0.76
CC(C)C[C@@H](CN(C)C)NC(=O)c1ccc(-c2cc[nH]n2)s1,0,0.04
Cn1cncc1CC(=O)N[C@H]1COc2cccc(Cl)c21,-8,1.18
c1ccc(CCc2n[nH]c3c2CN(Cc2cccc4nonc24)CC3)cc1,-1,0.11
Cc1c(NC(=O)CN2CCN(S(=O)(=O)c3cccc(F)c3)CC2)c(=O)n(-c2ccccc2)n1C,-7,0.96
O=C(NCC#CCOc1cccc(C(F)(F)F)c1)c1ccco1,-11,2.28
CN1c2cc(C(=O)Nc3ccc(Cl)cc3)ccc2C(=O)N2CCCCC[C@H]21,10,-1.31
Cc1ccc2c(C(=O)N3CCC(N(C)C)CC3)cc(-c3cncnc3)nc2c1C,6,-1.12
CCN(CC(=O)O)C(=O)Cc1cc(C)ccc1C,-11,1
O=C(Nc1ccc(N2CCCCCC2)cc1C(=O)O)c1ccc(Cl)cc1,37,-5.42
CNC(=O)c1ccc(C(=O)N2CCN(C(C)C)C(=O)C2)cn1,11,-2.02
COCCCn1nccc1-c1nc2ccc(F)cc2n1C,0,0.04
CN(Cc1ncon1)C(=O)[C@@H]1CCCN1c1ccccc1,-8,1.12
CN(C(=O)c1cc2c(s1)CCC2)S(=O)(=O)Cc1ccccc1,-5,0.47
O=C(CN1CCN(c2cnccn2)C[C@@H](O)C1)N1CCCCC1,-8,0.84
CC1(C)CCc2nnc(C3CCCC3)n2C1,-14,2.61
CCOC(=O)C1=C(C(=O)OCC)SC(=C2C(=S)C(C)(C)N(C(=O)CN3C(=O)CCC3=O)c3ccc(OC)cc32)S1,-6,0.72
Cc1ccc(Cl)c(OC(=O)[C@H]2CCCN(C(=O)N(C)C)C2)c1,-7,0.98
CN1CCN(CCCN(C(=O)c2cc(C3CC3)[nH]n2)C2CCOCC2)CC1,-9,1.37

SMILES,% Inhibition [%],Z score
CCC(C(=O)NC1CCOC1c1ccc(Cl)c(F)c1)N(C)C (stereo unspecified),-3,0.33
CCS(=O)(=O)c1ccc(Cl)cc1C(=O)N(C)c1nccs1,-5,0.54
Cc1ccc(N2COc3cc4c(cc3C2)OCO4)cc1C,-10,1.51
NC(=NCCCc1ccc(Cl)cc1)N1CCOCC1,-13,1.42
CC(C)CC[C@](C)(O)CNc1ncnc2nc(N)ccc12,4,-0.58
CC1(C)CN(C(=O)c2cocn2)c2c(C(F)(F)F)cccc21,3,-0.45
O=C1C[C@H](C(=O)N(CCO)C2CC2)CN1CCOc1ccccc1Cl,-2,0.18
Cc1oc(-c2ccccc2NS(=O)(=O)c2cccc(F)c2)nc1CNC(=O)[C@@H]1CCCCN1C,-8,0.93
Cc1cc2nccc(NC(=O)N[C@@H](C)c3ccnn3C)n2n1,-3,0.64
N#Cc1ccc(C(=O)NCc2nnc(N)s2)cn1,-8,1.36
CNc1cc([C@H]2C[C@H](NC(=O)c3c(C)nc4ccc(Cl)cn34)C2)ncn1,-14,2.61
CCc1ccc([C@H](COC)NS(C)(=O)=O)o1,-1,0.13
Cc1ccncc1C(=O)NCc1cccnc1Oc1ccc(F)cc1F,-5,1.05
COc1ccc(NC(=O)COC(=O)[C@@H]2CCCCN2S(=O)(=O)c2cccc3c2N=S=N3)cc1,0,-0.05
CCOC(=O)c1cn(C)c(C(=O)OC)c1N,6,-0.68
CCOc1nc(-c2cccc(C(F)(F)F)c2)n(-c2ccc(NC(=O)c3ccc(OC)cc3)cc2)n1,-7,0.78
Cc1ccc(CNC(=O)[C@@H](C)C2CCN(C(=O)c3ccc4nc(-c5ccccc5)oc4c3)CC2)o1,-4,0.46
COCCOc1nc(-c2cccc(C(F)(F)F)c2)n(-c2ccc(NC(=O)c3ccc(OC)cc3OC)cc2)n1,-4,0.54
O=C(COC1CCCC1)NCc1nnc2ccccn12,-5,1.02
COc1ccc(-c2cccc3c2O[C@@H](CN)C3)nn1,-1,0.11
CC(C)[C@H](CNC(=O)c1cccc(-n2cncn2)c1)N1CCN(C)CC1,-1,0.1

SMILES,% Inhibition [%],Z score
O=C(NCc1ccc[nH]1)C(=O)Nc1cc(F)cc(Cl)c1,-7,1.29
CCn1cc(C(=O)Nc2cn(C)nc2C(=O)NCc2ccco2)cn1,-6,0.87
CC(C)(C)NS(=O)(=O)c1cnc(NS(=O)(=O)c2cccc(F)c2)s1,17,-1.95
O=C(Nc1cnn(-c2ncc(N3CCCCC3)cn2)c1)NC1CCCC1,-18,3.01
COc1ccc([C@H](CNC(=O)c2ccco2)N2CCCCC2)cc1,-10,1.33
C#CCN(CC#CC)CC(=O)NC1CCCC1,-3,0.55
Cc1cnc(C(C)(C)NCC(=O)N2CCCCCC2)s1,-6,0.77
C[C@H]1CCCCN1C(=O)CCNc1ccncc1Cl,-4,0.34
COc1cc(NC(=O)N2CCN(c3ccncc3)[C@@H](C)C2)n(C)n1,-5,0.61
CC(F)(F)C1(CS(=O)(=O)NCc2ccco2)CCOCC1,2,-0.25
O=C(NCc1c(O)cccc1F)N[C@H]1CCO[C@@H]1c1cccnc1,0,0.05
Cc1ccc(NC(=O)c2ccc(N3C(=O)CCS3(=O)=O)cc2Cl)c(C)c1,-9,1.17
CC(C)C(=O)NCc1nc([C@H]2C[C@@H](c3ccccc3)N3CCC[C@H]23)no1,0,0.04
COCCCNC(=O)c1cnc2ccc(Cl)cc2c1O,-6,1.14
C[C@H](NCCN(C)C(=O)OC(C)(C)C)c1cn(C2COC2)nn1,0,-0.04
CCS(=O)(=O)N1CCC[C@H](C(=O)Nc2ccc(C)c(N3CCCC3=O)c2)C1,-5,0.85
Cc1nn(-c2ccc3nncn3n2)c2c1[C@@H](c1c(Cl)cccc1Cl)CC(O)=N2,-7,1.27
O=C(Nc1cccc(S(=O)(=O)N2CCCCC2)c1)c1ccc2c(c1)OCO2,-9,1.51
Fc1ccc2c(c1Br)CN(CCc1c[nH]nn1)CC2,-5,0.69
c1cn(CCCC2CCN(Cc3nnc4n3CCCC4)CC2)cn1,33,-3.71

# From ChEMBL document CHEMBL4888484, “Replenishing the malaria drug discovery pipeline: Screening and hit evaluation of the MMV Hit Generation Library 1 (HGL1) against asexual blood stage Plasmodium falciparum ,using a nano luciferase reporter read-out” (2022)
